From publication PMC10266789 (The Journal of Clinical Investigation, 2023)
Like-named read-outs stand apart in the source and are kept apart here.

Columns and labels:
HCMV (strain TB40/E) [1] = settings: for IC50: read-out: HCMV IC50, Table 2, infected MRC-5 cell area at 7 dpi, n = 2; for reduction of infected cell area: Figure 4F
[2] = tested on: Zika virus (strain DAK41525); experiment: microbe, parasite or virus in culture; settings: Fibroblast, read-out: IC50, Zika
HCMV TB40/E [3] = experiment: Human lung-only mouse model of HCMV infection; format: in vivo, lung-only mice (NSG); settings: day 17; TCID50; FLS-359 50 mg/kg p.o. b.i.d.; ganciclovir 100 mg/kg i.p. daily; P < 0.04
[4] = tested on: Epstein-Barr virus (EBV; strain Akata); experiment: microbe, parasite or virus in culture; settings: human gammaherpesvirus 4, Akata, read-out: IC50, Epstein-Barr
HCMV DNA = experiment: Intracellular HCMV DNA accumulation by qPCR in MRC-5; format: cell-based, human cytomegalovirus; settings: 72 hours; 3 IU/cell
[5] = tested on: HCMV TB40/E-mCherry-UL99eGFP; settings: Human betaherpesvirus 5, read-out: HCMV virus yield IC50
[6] = tested on: HCMV TB40/E-mCherry-UL99eGFP; experiment: HCMV virus yield at 72 hpi by TCID50 (3 IU/cell); format: cell-based, human cytomegalovirus; settings: Figure 8C
[7] = tested on: HCMV TB40/E-mCherry-UL99eGFP; experiment: HCMV treat-release experiment, TCID50 of culture medium; settings: 96 h infection with drug (0.5 IU/cell), washout, monitored 96 h
HCMV (strain TB40/E) [8] = experiment: microbe, parasite or virus in culture; settings: for EC90: Human betaherpesvirus 5, MRC5, read-out: approximate EC90 against HCMV
[9] = tested on: HCMV TB40/E-mCherry-UL99eGFP; experiment: HCMV delayed treatment protocol, infected cell area in MRC-5; settings: for IC50: Human betaherpesvirus 5, MRC5, 120 h, 5 days of treatment
[10] = tested on: HCMV TB40/E-mCherry-UL99eGFP; experiment: HCMV treat-release-infect experiment, infected cell area; format: cell-based, human cytomegalovirus
[11] = tested on: Epstein-Barr virus (EBV; strain Akata); settings: PAA; 24 hours after anti-IgG; stimulated control 30%
[12] = tested on: SARS-CoV-2 (strain USA-WA1/2020); experiment: microbe, parasite or virus in culture; settings: Severe acute respiratory syndrome coronavirus 2, Calu-3, in Homo sapiens, read-out: IC50, SARS-CoV-2
[13] = tested on: Betacoronavirus 1 (strain OC43); experiment: microbe, parasite or virus in culture; settings: Betacoronavirus 1, OC43, MRC5, read-out: IC50, HCoV-OC43
[14] = tested on: Influenza A (strain A/California/07/2009); settings: human dNHBE
[15] = tested on: Hepatitis B virus (genotype D, subtype ayw); experiment: microbe, parasite or virus in culture; settings: Hepatocyte, read-out: IC50, Hepatitis B
[16] = Residual drug levels in MRC-5 cells and supernatant after washout, mass spectrometry; format: in vitro ADME, human; settings: LMV 0.05 µM, 24 h
Procedure: Supplemental Figure 8. […] (A) Uninfected cells
After 24h, supernatant was collected, monolayers were washed 3x to remove drug and cells were replenished with drug-free media.
Supernatants and cells were then assayed for residual drug levels at 2, 24 or 72h post-release. (B-C) Supernatant and cell-associated drug concentrations were determined by mass spectrometry. (D) […]
monolayer of MRC-5 cells. Sampling of the supernatant was conducted after a 24h incubation at 37°C, followed by 3X washes with PBS, collection of the final wash, and replenishment of drug-free medium to the dishes. Supernatant samples were then collected at 24 and 72h post drug-removal. […]
concentrations as determined by mass spectrometry. Mean +/- SD is shown (n=3).
(1 picture or pasted object on this page, not shown here)

HCMV TB40/E [17] = experiment: Mouse gelfoam-fibroblast model of HCMV infection; format: in vivo, CIEA NOG mice; settings: day 11; TCID50; FLS-359 50 mg/kg p.o. b.i.d.; valganciclovir 50 mg/kg p.o. daily; P < 0.03
[18] = Human betaherpesvirus 5, MRC5, read-out: HCMV spread IC50, Figure 4F, 0.01 IU/cell, mCherry infected cell area at 7 dpi, mean ± SD, n = 4
[19] = read-out: IC50, infected cell area, drug added at 0 hpi, 0.1 IU/cell
[20] = read-out: IC50, infected cell area, drug added at 24 hpi
[21] = read-out: IC50, infected cell area, drug added at 48 hpi
[22] = read-out: IC50, infected cell area, drug added at 72 hpi
[23] = read-out: IC50, infected cell area, drug added at 96 hpi

For N#C/C(=C\c1ccc(-c2cc(Cl)ccc2Cl)o1)C(=O)Nc1cccc2ncccc12 [AGK2], the CC50 (MRC-5 cells) was greater than 100000 nM and the IC50 (HCMV (strain TB40/E) [1]) was 3400 nM.

For O=C(Nc1cccc(Br)c1)c1cccc(S(=O)(=O)N2CCCCCC2)c1 [AK-7], the CC50 (MRC-5 cells) was greater than 25000 nM and the IC50 (HCMV (strain TB40/E) [1]) was 8200 nM.

In the case of CCN(CC)Cc1cc(Nc2ccnc3cc(Cl)ccc23)ccc1O [Amodiaquine, reference compound], the IC50 [2] is reported as 2800 nM.

With Nc1nc(O)c2ncn(COC(CO)CO)c2n1 [Ganciclovir, ganciclovir] the “production of infectious HCMV progeny in human lung implants” value (HCMV TB40/E [3]) was “significantly reduced the production of infectious HCMV progeny”, the IC50 [4] was 43000 nM and the “intracellular viral DNA accumulation” value (HCMV DNA) was “inhibited intracellular viral DNA accumulation”. For the same compound, the IC50 [5] was 1200 nM, the “production of infectious virus” value [6] was “reduced virus yield to a more limited extent” and the “time after release of drug block at which progeny virus was detectable” value [7] was 48 h. It also gave an IC50 (HCMV (strain TB40/E) [8]; Human betaherpesvirus 5, MRC5, in Homo sapiens, read-out: IC50, HCMV, human MRC-5, Table 1) of 2700 nM, an IC50 (HCMV (strain TB40/E) [8]; [18]) of 1700 nM and an EC90 (HCMV (strain TB40/E) [8]) of roughly 20000 nM. The “reduction of infected cell area” value (HCMV (strain TB40/E) [1]) was 33 fold, the IC50 [9, 19] was 2500 nM and the IC50 [9, 20] was 2300 nM. For the same compound, the IC50 [9, 21] was 4100 nM, the IC50 [9, 22] was 3600 nM and the IC50 [9, 23] was 1400 nM. For the same compound, the “Maximum Fold-Reduction in infected cell area” value (shortened to “Maximum Fold-Reduction”) ([9]; drug added at 0 hpi) was 3.2, the “Maximum Fold-Reduction” value ([9]; drug added at 24 hpi) was 4.5 and the “Maximum Fold-Reduction” value ([9]; drug added at 48 hpi) was 7.5. The “Maximum Fold-Reduction” value ([9]; drug added at 72 hpi) was 1.9, the “Maximum Fold-Reduction” value ([9]; drug added at 96 hpi) was 1.3 and the “activity in pretreatment regimen” value ([10]; 24-hour pretreatment, 72-hour washout, then infection) was “had no activity”. For the same compound, the “activity when readministered at the time of infection” value ([10]; control experiment) was “both drugs were active”.

For O=C(O)CP(=O)(O)O [PAA, phosphonoacetic acid, reference compound], the “gp350+ Akata cells” value [11] was “about 11%”.

In the case of CCC(CC)COC(=O)[C@H](C)N[P@](=O)(OC[C@H]1O[C@@](C#N)(c2ccc3c(N)ncnn23)[C@H](O)[C@@H]1O)Oc1ccccc1 [Remdesivir, reference compound], the IC50 [12] is reported as 400 nM and the IC50 [13] is reported as 100 nM.

With NC(=O)c1ncn([C@@H]2O[C@H](CO)[C@@H](O)[C@H]2O)n1 [Ribavirin, reference compound] the “IC90, Influenza A (column headed IC50, footnote C: IC90)” value [14] was 0.7^C μM.

In the case of Cc1cc(C)nc(SCC(=O)Nc2ncc(Cc3cccc4ccccc34)s2)n1 [SirReal2], the CC50 (MRC-5 cells) is reported as greater than 20000 nM.

Compound CCCCCCCCCCCCCC(=S)NCCCCC(NC(=O)OCc1ccccc1)C(=O)Nc1ccccc1 (stereo not drawn) [TM] has a CC50 (MRC-5 cells) of 46300 nM and an IC50 (HCMV (strain TB40/E) [1]) of 26000 nM.

Compound C[C@H](Cn1cnc2c(N)ncnc21)OCP(=O)(O)O [Tenofovir, reference compound] has an IC50 [15] of 30 nM.

For COc1cccc(N2CCN(C3=Nc4c(F)cccc4[C@H](CC(=O)O)N3c3cc(C(F)(F)F)ccc3OC)CC2)c1 [letermovir], the “intracellular viral DNA accumulation” value (HCMV DNA) was “did not have a significant effect on DNA accumulation”, the IC50 [5] was 2 nM and the “production of infectious virus” value [6] was “reduced virus yield to a more limited extent”. For the same compound, the “time after release of drug block at which progeny virus was detectable” value [7] was 24 h, the IC50 (HCMV (strain TB40/E) [8]; [18]) was 3 nM and the EC90 (HCMV (strain TB40/E) [8]) was roughly 50 nM. For the same compound, the “reduction of infected cell area” value (HCMV (strain TB40/E) [1]) was 4 fold, the IC50 [9, 19] was 4 nM and the IC50 [9, 20] was 4 nM. The IC50 [9, 21] was 5 nM, the IC50 [9, 22] was 7 nM and the IC50 [9, 23] was 2 nM. For the same compound, the “Maximum Fold-Reduction” value ([9]; drug added at 0 hpi) was 2.0, the “Maximum Fold-Reduction” value ([9]; drug added at 24 hpi) was 2.7 and the “Maximum Fold-Reduction” value ([9]; drug added at 48 hpi) was 3.7. The “Maximum Fold-Reduction” value ([9]; drug added at 72 hpi) was 2.0, the “Maximum Fold-Reduction” value ([9]; drug added at 96 hpi) was 1.3 and the “removal of drug from supernatant and cells by washing” value [16] was “effectively removed from supernatant and cells by washing”.

In the case of CC(C)[C@H](N)C(=O)OCC(CO)OCn1cnc2c(=O)nc(N)[nH]c21 (stereo partly drawn) [valganciclovir, reference compound], the “virus production in gelfoam implants” value (HCMV TB40/E [17]) is reported as “significantly reduced virus production”.
